Data as given in the antibiotic and cytotoxicity screens of Wong et al. (2023).
This is one part of the list.

These compounds were tested on HepG2 (assay: cytotoxicity call (relative viability < 0.9)). Settings: 10 µM.

SMILES | cytotoxicity call
C[C@H]1CCCCO[C@H](CN(C)Cc2ccc3c(c2)OCO3)[C@@H](C)CN([C@@H](C)CO)C(=O)c2cc(NC(=O)C3CCCCC3)ccc2O1 | inactive
C[C@H](CO)N1C[C@H](C)[C@@H](CN(C)S(C)(=O)=O)Oc2ccc(NS(=O)(=O)c3ccc(Cl)cc3)cc2CC1=O | inactive
C[C@H]1CN([C@@H](C)CO)S(=O)(=O)c2ccc(C#CC(C)(C)O)cc2O[C@H]1CN(C)C(=O)C1CCCCC1 | inactive
CS(=O)(=O)NC[C@@H]1OC[C@@H]2CCN(C(=O)c3ccnnc3)C[C@@H]21 | inactive
COc1ccc(NC(=O)Nc2ccc3c(c2)[C@@H]2C[C@H](CC(=O)NCc4ccc(-c5ccccc5)cc4)O[C@@H](CO)[C@@H]2O3)cc1 | inactive
CC(C)NC(=O)N(C)C[C@@H]1OCCCC[C@H](C)Oc2ccc(NS(C)(=O)=O)cc2C(=O)N([C@@H](C)CO)C[C@H]1C | inactive
C[C@@H]1CCCCO[C@@H](CN(C)C(=O)Nc2ccccc2)[C@@H](C)CN([C@@H](C)CO)C(=O)c2cc(NS(=O)(=O)c3ccc(F)cc3)ccc2O1 | inactive
COc1ccc(-c2ccccn2)cc1 | inactive
CC(=O)N1CCc2c(sc(NC(=O)CN3C(=O)CCC3=O)c2C(N)=O)C1 | inactive
C[C@H](CO)N1C[C@H](C)[C@@H](CN(C)C(=O)Nc2cccc3ccccc23)OCCCC[C@H](C)Oc2ccc(NS(=O)(=O)c3ccc(Cl)cc3)cc2C1=O | inactive
C[C@@H]1CN([C@@H](C)CO)C(=O)c2cccc(NC(=O)C3CCCCC3)c2O[C@@H]1CN(C)Cc1ccc(C(=O)Nc2ccccc2N)cc1 | active
